Measurements: PMC8546615, “Polyketide Starter and Extender Units Serve as Regulatory Ligands to Coordinate the Biosynthesis of Antibiotics in Actinomycetes” (mBio, 2021)

T1: AcrT (Saccharopolyspora erythraea A226) (UniProt A4FGS6)
T1 sequence: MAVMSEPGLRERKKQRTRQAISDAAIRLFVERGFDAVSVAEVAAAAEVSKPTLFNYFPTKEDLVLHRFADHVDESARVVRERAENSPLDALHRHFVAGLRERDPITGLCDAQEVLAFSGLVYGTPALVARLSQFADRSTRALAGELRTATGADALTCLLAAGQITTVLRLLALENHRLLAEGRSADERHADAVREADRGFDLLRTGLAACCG

T2: AcrTSc (Streptomyces coelicolor M145) (UniProt Q9FCH5)
T2 sequence: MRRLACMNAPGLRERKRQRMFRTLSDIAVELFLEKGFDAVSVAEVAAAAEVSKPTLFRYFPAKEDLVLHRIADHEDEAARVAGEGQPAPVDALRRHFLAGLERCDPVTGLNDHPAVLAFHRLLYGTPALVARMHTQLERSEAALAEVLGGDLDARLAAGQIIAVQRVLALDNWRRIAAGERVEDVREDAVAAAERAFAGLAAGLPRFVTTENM

T3: AcrTSc (SCO4194) (Streptomyces coelicolor, UniProt Q9FCH5)
T3 construct: His-tagged, E. coli BL21(DE3), Ni-NTA
T3 sequence (Q9FCH5 1-213): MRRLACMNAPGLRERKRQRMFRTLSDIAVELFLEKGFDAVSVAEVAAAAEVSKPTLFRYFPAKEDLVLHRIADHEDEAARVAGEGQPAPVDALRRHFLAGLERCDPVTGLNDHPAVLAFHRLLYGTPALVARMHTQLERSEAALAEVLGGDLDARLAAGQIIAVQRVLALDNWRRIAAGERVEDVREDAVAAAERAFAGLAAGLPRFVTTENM


molecular target: T1, AcrT (Saccharopolyspora erythraea A226); assay: EMSA; conditions: BLI: 1 mM Tris-HCl pH 8.0, 5 mM MgCl2, 60 mM KCl, 10 mM DTT, 50 mM EDTA, 10% glycerol, 25 C; EMSA: binding buffer (composition not given), 30 C 20 min, 6% …

| Molecule | binding |
| --- | --- |
| GCTGCTTCTTTAGCACACCGCTACCAGCGCCAAATCGATGTGACCAGGCGTTTTACCTCGACATGATTGTTTGTTTACAACCTTTTTTCAGGCGTTTGCGCTCGCAGGCGTTGCTTTGGCGAGCGCGCTGTGATCTTCGTCATCAGTTCGGTGAGGGCACTCGATCCGATTGCGTGAGCGCCACCCCGCGGTGCACTGTTGCACGACGACCACGGCCGCTTCCGCGTTCCGAACCCCCGCCACGTCGAAACCGCGCGCGCCCGCGCGCGGCACCACCGAGCGTGAGAGACGAGGCATC (double strand) [P0632-0633] | binds |
| GCATCGTGCCCAGCCAGTCGAGGAGTGCGGTTTCGTCGGCCATGCCGGGAACTTCGTCGATGGTGGTCAACGTTCTCCTCGCGCAGCAGGTCGTTTCCACGTCGGCGAACACGCGTCGCGATCTTGAGCTTAGTCGCGCGCCGGACGGGGTGTCGAGACTTCCGCGGTG (double strand) [PeryK] | binds |
| CGGTGGAGGCCGTCGTTCCGGTCATGTCATCCCTCTTCTCGTCGGCGGTGCTCTGCCGCACCGGCCGGAGAGAGCATGCCACAAAGGCTAACTCGGTTAAAAACTAGTACTGGATAACTGATTGACCGAGTCTTGCGATGAGCTAGCATGGCGGTCATGAGCGAGCCGGGTC (double strand) [acrT-3981-int] | binds |
| CGGAGCATTTGCTCGCTTTCCAGGTCGGTGCTACGGGCGAAATTCAAAGAATCTCCCCAGCGCGATGTGCGGCAACCCGTCACTGGGCCACCACAGTAGGTAGCCGCCGTTGATCTTGTCAACATGCAGATGTTCACAGGTTCGTTGGCTCGACGAGGCGATGTCAACCTCTTGATCCTTCCTATATTGTTCGCCCATTGCGTGGTCGTCGAGTAGGGGGACGC (double strand) [PeryAI (eryAI-BIV-int)] | binds |
| AGGCCCATCGGTCCGCCCGCTGCTGGCGGGGTGCGCCGCCGGTGCGGCTTCGCCGATCATCCGCAACGAGCCAGGAGAAACCGCAGCGATGAGCAGTGCGACCGAACCTGTCGGGGTGCCGCCGGCGGAGGCACCGGACATCCACACCACCGCGGGCAAGCTGGCCGACCTCTACCGGCGCAACCACGAGGCCGTGCACGCGGGTTCGGA (double strand) [P3398-3399] | no binding |
| CGCGTAGGACTCCGAGGCCGGGTCGACGGCCGTGGTGAGGACGGGCGCATCCATGCGTTGTGCACACCTTCCGCGGTCAGCGCGTTAGTCATCGTTAACCAACGGGATCGATGTTAACGACGACTAACCCCTTCGTCTAGTATCGACACGATGGAGGCAAAGCCGTCCCGGCGCGAGCAGATCCTGGAAG (double strand) [P7038-7039] | binds |
| GTCCCACCTGCCCAAAAGGCCAAACCCGATTGCTGCGCGAGGGCCCTCCTGCGGTCTAGCGTGACTACCGACAGGACCCCAACGGGGTGGTGCTGCGGCGGTTCGGACACCCCGGCCGGCGCATGTGCGCGATCGACAACGCAGCCCGGACAGCACGGCCGCCCGGGGCGCGGGTCGTCGGCGACGCAAGCCGCCCCTGACGAGCGCGAGAGGTTCCCGA (double strand) [P0649] | no binding |
| TCCAGGAAGGGGACGTCCATGCGAGTGTCCGTTCGAGTGGCGGCTTGCGCCCGATGCTAGTCGCGGTTGATCGGCGATCGCAGGTGCACGCGGTCGATCTTGACGGCTGGCGAGAGGTGCGGGGAGGATCTGACCGACGCGGTCCACACGTGGCACCGCGATGCTGTTGTGGGCTGGACAATCGTGCCGGTTGGTAGGATCCAGCGGTGAGCAGTTCGGACGAGCA (double strand) [ermE-eryCI-int] | binds |
| GTCGCCGGTCCGATCACCCATCGACTCTCCCTGCGGTGTCGTCGACGGCTCCGCTTGCTGCCGCCGGGCGTTGTCGATCAAGACCCGCACTCACTGTAAGGGTCCGGTCACGGCGGGGAAAGGGCCCGTGGAGCGGATCACCTGTGCCAGGAACGGAAAACGCGAACGCACGGGTCATCCGCGCACACCGACGA (double strand) [PeryBVI] | binds |
| GACGTCCTCCTCCTGGTGCGGTCGGTTTGGACGTGTCCTCACCTACACCGAGGCGGCGCGGGCGCGCGTGGATACGTCACCGGCGCCGTCGATCCGGATCCGCCTCGGCATGTATCCCGCGGCGGCGCAGCCCGCTCTGTACGGGTGGATCTCGCGGGCGAGCCGACTCCGCGTCGAGCCACGCGCGAGGTCACCGCGCGAGACGGGTCCCGCTCGTCCGCGACGACCTGTGAGGAGGGACGTGGTGAGT (double strand) [P0018-0028] | binds |
| ACGCGCTCACCCCCAGTCATGCAAACAATTTTCAGCTTGATCAACCTAACACCGGCGCGCGGTGCCGACACGGACTTTTCGGACGCCGCTCCTCGGCCGGACATCGCAGCGGAAAGCGCGATCCACAATGGACGCAACGGGAGTCGTAAACCGGCTGATGTGATCCAGGACACAAAGCTCGACGGGTTGGCCGCGGCGCCGCGCTCGTTATGATCTTCCTTGTGGGACT (double strand) [eryBI-BIII-int] | binds |
| GGAGATCCCGGAGGTGTTGCTGTGATCGGTCGAGCGAGCAGCGCGGGCGTTGCCGCGCCCACCGCCGACCAGCGCGGCCGGTTCGGCCGGACCGCGGCGAATCAGGCGGGGGAGAGGGCATGACGGCGCTGAAGTCGCAAGTGGACACCA (double strand) [P3241-3242] | no binding |

molecular target: T2, AcrTSc (Streptomyces coelicolor M145); assay: EMSA; conditions: BLI: 1 mM Tris-HCl pH 8.0, 5 mM MgCl2, 60 mM KCl, 10 mM DTT, 50 mM EDTA, 10% glycerol, 25 C; EMSA: binding buffer (composition not given), 30 C 20 min, 6% …

| Molecule | binding |
| --- | --- |
| CCGCTGGTCGCACCCGTCACCAGTGCGACTTCGGAGTCCTGCGTGGCCATGTGTTCCCCTCCCTGCCTCGTGGTCCCTCACGCGCTCAGCTTTGGGCGCCCGGCTCGAGCGGCGGTCGAAGGGAGATGGGGTGCCGCTGGACGCGGCGCCGGTGGATCCGGCATCGAGGGGTCCCGTATC (double strand) [PactI-ORF1] | binds |

molecular target: T1, AcrT (Saccharopolyspora erythraea A226); assay: DNase I footprinting; conditions: BLI: 1 mM Tris-HCl pH 8.0, 5 mM MgCl2, 60 mM KCl, 10 mM DTT, 50 mM EDTA, 10% glycerol, 25 C; EMSA: binding buffer (composition not given), 30 C 20 min, 6% …

| Molecule | binding |
| --- | --- |
| CGGAGCATTTGCTCGCTTTCCAGGTCGGTGCTACGGGCGAAATTCAAAGAATCTCCCCAGCGCGATGTGCGGCAACCCGTCACTGGGCCACCACAGTAGGTAGCCGCCGTTGATCTTGTCAACATGCAGATGTTCACAGGTTCGTTGGCTCGACGAGGCGATGTCAACCTCTTGATCCTTCCTATATTGTTCGCCCATTGCGTGGTCGTCGAGTAGGGGGACGC (double strand) [PeryAI FAM/HEX] | binds |

molecular target: T3, AcrTSc (SCO4194); assay: EMSA (enhanced binding to PactI-ORF1 DNA); EGFP reporter in E. coli; conditions: PactI-ORF1 promoter DNA; EMSA at 30 °C; allosteric

| Molecule | EMSA (enhanced binding to PactI-ORF1 DNA); EGFP reporter in E. coli |
| --- | --- |
| CC(C)(COP(=O)(O)OP(=O)(O)OC[C@H]1O[C@@H](n2cnc3c(N)ncnc32)[C@H](O)[C@@H]1OP(=O)(O)O)[C@@H](O)C(=O)NCCC(=O)NCCSC(=O)CC(=O)O [M-CoA] | A-CoA or M-CoA could promote AcrTSc to interact with PactI-ORF1 |
| CC(=O)SCCNC(=O)CCNC(=O)[C@H](O)C(C)(C)COP(=O)(O)OP(=O)(O)OC[C@H]1O[C@@H](n2cnc3c(N)ncnc32)[C@H](O)[C@@H]1OP(=O)(O)O [A-CoA] | A-CoA or M-CoA could promote AcrTSc to interact with PactI-ORF1 |

molecular target: T4, AcrTSa (SAV4017) (Streptomyces avermitilis, UniProt Q82G81); assay: EMSA (release from PaveA1 DNA); EGFP reporter in E. coli; type: binding; conditions: PaveA1 promoter DNA; EMSA at 30 °C; allosteric
T4 construct: gene SAVERM_4017; His-tagged, E. coli BL21(DE3), Ni-NTA

| Molecule | EMSA (release from PaveA1 DNA); EGFP reporter in E. coli |
| --- | --- |
| CCC(C)C(=O)SCCNC(=O)CCNC(=O)[C@H](O)C(C)(C)COP(=O)(O)OP(=O)(O)OC[C@H]1O[C@@H](n2cnc3c(N)ncnc32)[C@H](O)[C@@H]1OP(=O)(O)O (stereo partly drawn) [MB-CoA] | four acyl-CoA precursors could mediate the dissociation of AcrTSa from the promoter of aveA1 |
| CC(C)(COP(=O)(O)OP(=O)(O)OC[C@H]1O[C@@H](n2cnc3c(N)ncnc32)[C@H](O)[C@@H]1OP(=O)(O)O)[C@@H](O)C(=O)NCCC(=O)NCCSC(=O)CC(=O)O [M-CoA] | MB-CoA, IB-CoA, M-CoA, and MM-CoA serve as ligands to coordinate avermectin biosynthesis |
| CC(C(=O)O)C(=O)SCCNC(=O)CCNC(=O)[C@H](O)C(C)(C)COP(=O)(O)OP(=O)(O)OC[C@H]1O[C@@H](n2cnc3c(N)ncnc32)[C@H](O)[C@@H]1OP(=O)(O)O (stereo partly drawn) [MM-CoA] | MB-CoA, IB-CoA, M-CoA, and MM-CoA serve as ligands to coordinate avermectin biosynthesis |
| CC(C)C(=O)SCCNC(=O)CCNC(=O)[C@H](O)C(C)(C)COP(=O)(O)OP(=O)(O)OC[C@H]1O[C@@H](n2cnc3c(N)ncnc32)[C@H](O)[C@@H]1OP(=O)(O)O [IB-CoA] | MB-CoA, IB-CoA, M-CoA, and MM-CoA serve as ligands to coordinate avermectin biosynthesis |

molecular target: AcrT (Saccharopolyspora erythraea A226, UniProt A4FGS6 1-212); assay: BLI; no ligand; BLI: 1 mM Tris-HCl pH 8.0, 5 mM MgCl2, 60 mM KCl, 10 mM DTT, 50 mM EDTA, 10% glycerol, 25 C; EMSA: binding buffer (composition not given), 30 C 20 min, 6% native PAGE in TAE; footprint: binding 30 C 30 min, DNase I 25 C; conditions: protein: recombinant; tags: N-terminal His (pET28a); chain copies: 2; label: biotin; blunt

| Molecule | Kd [nM] |
| --- | --- |
| 50-bp site A probe (dsDNA) DNA 1: AGGCGATGTCAACCTCTTGATCCTTCCTATATTGTTCGCCCATTGCGTGG DNA 2: CCACGCAATGGGCGAACAATATAGGAAGGATCAAGAGGTTGACATCGCCT | 16.4 |
